Self-cleavage data for 167 variants are collected here from the RNAGym collection of RNA variant scans (doi:10.7554/elife.90254).

The source gives no read counts; variants with many changes may rest on few reads.

The chains are these.
B1: LINE1-full (parent)
chain: UACGUAGGUGGUUUUCCCCUGAUAGUGCUAAGGGGGCCUGGAAGUUUGGACUGGGCAGAGCUCAACACAGCGUGGCAAAGUGGCUGUGGCUAGACUGCCUCUCUGGAUUCCUCGUCACUCAGCAGGGCAUCUCUGAGAGAAAUGCC

The variants in this data set derive from B1. Kind of data set: self-cleavage, relative activity (ratio to wild type); higher = more cleavage; in vitro, sequencing; the parent is a self-cleaving ribozyme.
U23A G34C U100A: the self-cleavage worked out at 0.75.
Consider A24G U45C G83A U108C, for which the self-cleavage was found to be 0.51.
In the case of U23C U87C G105A C111A it was 0.11; in that of A24U A43G A124G, 1.41; in that of A22U U115C U130A, 1.76.
In the case of A24G U87C U130C it was 0.33; in that of A22G U45C G82A, 1.53; in that of U23C U29C U52A A117U, 1.39.
For A22G U62C A92U the value was 0.35; for U23C U100C U130C, 1.7.
For the variant A24G U47A U102A A124G, the self-cleavage worked out at 1.53.
For A24G G34U G75A U112C A138G the value was 1.09; for A22G U26A A59G U73A, 0.06.
In the case of A24G A43G A57U it was 0.56; in that of A22G U85A U87A U130A, 0.07.
As for A22G U62C A65C U132A, the self-cleavage worked out at 0.17.
In the case of A22U A65G U143A it was 0.09; in that of U23C A64U A124G, 0.37; in that of U23C U45C A92U U119A A136G, 1.36.
For U23C U81A U85C U108C U132C the value was 0; for U23C U26C C28A, 1.75; for A24U A78G U81C, 0.27.
Regarding A22U A94U A121C, the self-cleavage was 0.41.
For A24C A107G A138C, the self-cleavage came to 0.67.
In the case of A22U C84U U130C A136G it was 0.16.
For A24U A57G A77U G83U U96A the value was 0.02.
In the case of A24C C76U U132A it was 2.42.
Take A22U A142G U143C: the self-cleavage is 1.27.
For U23A A64G A124U the value was 0.58; for U23A U39C A65G A78G U130A, 0.19; for A24G C103U U115A, 1.13.
For the variant U23C U29C A117G, the self-cleavage was 0.24.
For A24G G74A U87G the value was 0.14; for A24U U45A A129U U134G A141G, 1.99; for U23C U39A A59G A67C A142G, 0.14.
As for A24U G41A A69U U96C U102A, the self-cleavage is 0.06.
For U23C A64G A141G the value was 0.57; for A22G U119C A142G, 1.62.
As to A24G G27A G36A, the self-cleavage was 1.
In the case of A24G C113U U143C it was 1.42; in that of A24U A50U U108C, 1.53; in that of A24G A43G A136U, 0.8.
In the case of A24G G86A A142G, the self-cleavage worked out at 0.03.
In the case of U23C U73A U91C U104C it was 1.84; in that of A24G U52A A57U A77U U130C, 0.43.
In the case of A22G G125U G126A it was 1.65; in that of A22G U73C U130C A141G, 2.3.
For U23A A65U U134C the value was 0.3; for A22G U73A A79G C95U U104C A129G, 0.33; for A24U U45G U46C U85A, 0.08.
Regarding U23C U91A A129G, the self-cleavage is 2.04.
Take A22U U26C U73A U87C: the self-cleavage is 0.14.
Take A22G U134A U143C: the self-cleavage came out at 0.92.
Turning to U23A G40A A65U U85A, the self-cleavage amounted to 0.02.
As for A24G A79G U109C, the self-cleavage was 1.27.
For A22G U62C A79G U112C the value was 0.51.
For U23A A107G A124G the value was 0.84; for A24G A77G A94U A142G, 0.97.
In the case of A22G U26A C56U A129G, the self-cleavage was 0.12.
As to U23C U112G U119C, the self-cleavage was determined as 1.97.
As to A22U A24G A43G A65G, the self-cleavage was determined as 0.3.
U23C A43G U81C: the self-cleavage amounted to 1.93.
Take A22G U108A U115C: the self-cleavage was 0.99.
In the case of U23A U39C U102C A124U U134C, the self-cleavage was 1.24.
For A22G U26A U104A U119A G122U the value was 0.81; for A24U G36A A78G A136U, 1.34.
On to A24G U47C U100C, for which the self-cleavage amounted to 0.46.
For U23C U52C A77U U81A A142G the value was 1.34; for A22U G97A U104C A117G, 0.25.
As for A22G G53A U96A, the self-cleavage came out at 0.02.
Regarding A24U U39A A42G U130C, the self-cleavage came to 0.94.
For A22U U23C U102C U134G the value was 2.68; for U23A U62C A107G A138G, 0.24; for A24G G49A A138G, 1.47.
Turning to A22G U46C A136G, the self-cleavage was 2.41.
As to U23C U132C A141G, the self-cleavage turned out to be 0.12.
With U23A A50U U81C U132A, the self-cleavage stood at 1.25.
Consider A22U C61U A77U U132C A142G, for which the self-cleavage is 0.06.
As to U23A A24U A31G A107G C116U, the self-cleavage amounted to 1.61.
In the case of U23C U46C G75A A121U U132C C145U it was 0.84.
In the case of A24G A31G U47C C84U it was 0.71.
In the case of A24U A31U A78G U85C it was 0.14.
Take A24U A64U A94G: the self-cleavage was found to be 0.07.
Consider A22U G34A A69U A78U A117G, for which the self-cleavage amounted to 0.09.
Take A24U A42G G82U U91C A136G: the self-cleavage is 1.59.
For the variant A22U A42G A94G C98A, the self-cleavage was found to be 0.42.
In the case of A22U U29C A107G, the self-cleavage was 1.62.
For A22G U26C A43G A78G, the self-cleavage was found to be 1.53.
For the variant A22U A67G U91C, the self-cleavage was found to be 0.16.
For A24G U46C A59G U85A A129U the value was 0; for A22G U73C U91C, 0.71; for U23A U109A A142G, 1.18.
For A24G U100C U109A the value was 1.02; for U23A A31C A77U U104A U108C, 0.97; for U23C U73C U85C A136U, 0.
Regarding A22U U39C U46C A142G, the self-cleavage is 0.54.
For the variant A22G U108C A129U, the self-cleavage was found to be 0.66.
For A22G U39A A78U U100G the value was 2.65.
With U23C G72A U85C, the self-cleavage was 0.17.
Turning to A22U U91C U104C, the self-cleavage was found to be 0.
In the case of A22U A50G A59U A142G it was 0.45; in that of A24G U81G U115C U143A, 2.12; in that of U23C A64U U130C A138G, 1.12.
For A22G U45A A78U A129G the value was 1.82; for A24G G34U A64G, 0.3; for A22U A78G G125A, 1.53.
Turning to A22G U46A U108C, the self-cleavage came to 1.89.
Regarding A22U C71U A141G, the self-cleavage was 1.49.
On to A24G A30G A43G U100C, for which the self-cleavage is 0.44.
Regarding A22U U47A U62C A129G A138G, the self-cleavage came out at 0.05.
In the case of U23C U96C U115C, the self-cleavage was 0.21.
For U23C A94G U112C the value was 0.31; for A24U A57U A92G U96A, 0.08; for A24G U29C U39A U46C U47A A64G U100A, 1.53.
In the case of A22G U47A A59G G83U A117G U143C it was 0; in that of A22G U39A A50G G93A, 0.14; in that of A22G U26C A124U, 0.29.
Turning to A22U A42G A50G C56U A65G G122A A136G, the self-cleavage came out at 0.06.
For U23C A31G A64G U115C the value was 0.71; for A24G U29A A138G, 0.97; for A24G U46C A138G A140G, 1.41.
In the case of U23C U47C U52C A59G C116U it was 0.51; in that of A22G U23A A69G G74A, 0.
In the case of A22G U62C A64U A136G, the self-cleavage came to 0.13.
For A24G C116U A140G A141U the value was 0.8; for U23A G35A U87C U109A, 0.08.
With A22G U109C A129G, the self-cleavage stood at 1.62.
For A24G U39C U134A the value was 0; for A24U A64G U85A U115A, 0.
In the case of A24G U104C U132C U143G it was 2.42; in that of A24G U73A G88A A94G, 0.05; in that of U23C A107G C128U, 1.73.
As to A24G U26G G32A A79G, the self-cleavage came out at 0.75.
For A24G A59G A117U the value was 0.13; for A24U A121U A136G, 1.68.
In the case of A24G U47G A117U U119C it was 1.02; in that of A22U U47C U102C, 1.28.
In the case of U23C A57G U62A U132A it was 0.
With A22G G82U U91A A107G A138G, the self-cleavage was found to be 0.5.
For U23C G127A U130C U132G the value was 1.27.
For U23C A94G U130C the value was 0.32; for A22G U45C U46C C84U U85A U115A A138C, 0.09.
Regarding U23C A77G A78G, the self-cleavage worked out at 2.27.
In the case of U23A A67U A77U it was 0.14; in that of A22G U39C A77U, 0.49; in that of A22U U23C C37G A67G A136G G139U, 0.54.
In the case of U23A A77G C98U it was 0.79; in that of A22G U52C U102C, 1.44.
On to A22G U39C G54U A78U U119C, for which the self-cleavage was 1.12.
In the case of A24G G35A G53A it was 0.75; in that of A24G G74A U100C, 1.61; in that of U23C A43G A77G U104A, 0.85.
For the variant A22U U62A U134A A138G, the self-cleavage amounted to 0.01.
For the variant A22G G58A A138G, the self-cleavage was 0.11.
In the case of U23C A64U U108G it was 0.74; in that of A22U U45A U112C A141G, 1.59; in that of A24G U62C A107G, 0.
With A24G A43G U87A A138G, the self-cleavage was 0.06.
U23A U62A A69G A79U A121U: the self-cleavage came out at 0.02.
Take A24G A77G A79G: the self-cleavage was found to be 1.62.
For A24G U62A G74A the value was 0.06; for A22G G125A A140G, 1.15; for U23A A30G A64G A138G A140U, 0.81.
For A24U A67U A79U U104C U119C U134C, the self-cleavage came to 0.9.
For U23C G58U A69G the value was 0.05.
For A24G G32A A43G the value was 1.04; for A24U A43G G82A, 1.15.
